Assays:
[1] = tested on: human telomerase (extract of A549 cells), oligonucleotide TSG4; assay: Antitelomerase activity by the TRAP-G4 assay; assay type: biochemical; conditions: formation of the TSG4-CXext band; read-out: Inhibition of telomerase IC50 (IC50 TRAP-G4)
Description: The extract is stored at -80° C.

[2] = tested on: oligonucleotide capable of forming a G-quadruplex structure (G-rich strand, repetitive units of human telomeric DNA); assay: Test of affinity No. 1 (alpha screen): inhibition of pairing of a G-quadruplex-forming oligonucleotide with its complementary strand, luminescence; assay type: binding; conditions: 50 mM TRIS-HCl pH 7.4, 100 mM KCl, 0.1% BSA; telomeric strand vs complementary strand; read-out: Affinity/selectivity G4 Test 1 (alpha screen) Affinity IC50
From the text: The principle of this test uses the activation of “acceptor” beads by an oxygen singlet emitted by “donor” beads excited by laser when the “acceptor” and “donor” beads are in proximity. This test was developed by Packard Bioscience under the name Amplified Luminescent Proximity Homogeneous Assay or ALPHA screen.
The “donor” beads are conjugated with streptavidin and the acceptor beads with an anti-digoxigenin antibody (catalog reference 6760604). A DNA strand, in this case the telomeric strand, is coupled at its 5′ end to biotin so as to be able to bind to the “donor” beads, while the complementary strand is coupled to digoxigenin so as to be able to bind to the “acceptor” beads. During the pairing of the telomeric strand with its complementary strand, the beads are placed in proximity and a luminescence signal is then emitted at a wavelength of 520-620 nm.
The oligonucleotides used in the experiments were synthesized by Perkin Elmer Life Sciences (Finland). […] The complementary strand has the sequence GGT-TTA-AAA-AAT-TTG-CCC-TAA-CCC-TAA-CCC-TAA-CCC-T. The biotin or the digoxigenin are added to the 5′ end of the oligonucleotides.
The experiments are carried out in 50 mM TRIS-HCl buffer pH 7.4 containing 100 mM KCl and 0.1% BSA. […]
The experiments are carried out in 96-well plates (½ wells). […] The plates are incubated at room temperature for 2 hours before reading. […]

[3] = tested on: G-quadruplex oligonucleotide GGGTTAGGGTTAGGGTTAGGG (3.5 repeats of the human telomeric unit), FAM+DABCYL; assay: Test of affinity No. 3: stabilization of the G-quadruplexes, fluorescence Tm; assay type: binding; conditions: test product 1 μM, oligonucleotide 0.2 μM, 0.1 M LiCl, 10 mM cacodylate pH 7.6; reference Tm 44° C.
From the text: Test of affinity No. 3: Measurement of the stabilization of the G-guadruplexes Tm, expressed in ° C., by a method using the formation of a complex with fluorescein of which the experimental protocol is described below.
All the oligonucleotides, modified or otherwise, were synthesized by Eurogentec S A, Seraing, Belgium. The oligonucleotide FAM+DABCYL has the catalog reference OL-0371-0802. It has the sequence: […] corresponding to 3.5 repeats of the human telomeric unit (strand rich in G). The fluorescein is attached to the 5′ end, the DABCYL to the 3′ end, by the chemical arms described by Eurogentec. An oligonucleotide FAM+TAMRA may also be used. The concentration of the samples is checked by spectrophotometry, by recording the absorbance spectrum between 220 and 700 nm and using the molar extinction coefficient provided by the supplier. […]
All the measurements of fluorescence were carried out on a Spex Fluorolog DM1B or Fluoromax 3 apparatus, using an excitation line width of 1.8 nm and an emission line width of 4.5 or 5 nm. […] The oligonucleotide alone was analyzed at 20, 30, 40, 50, 60, 70 and 80° C. The emission spectra are recorded using an excitation wavelength of 470 nm. The excitation spectra are recorded using either 515 or 588 nm as emission wavelength. […] This juxtaposition causes an already-described phenomenon of extinction of fluorescence which is used for “Molecular Beacons”. […]

[4] = tested on: any oligonucleotide (non-G-quadruplex control sequence) with its complementary strand; assay: Test of selectivity No. 1 (alpha screen): inhibition of pairing of any oligonucleotide with its complementary strand, luminescence; assay type: binding; conditions: control oligonucleotide pairing versus G4 oligonucleotide pairing
From the text: The test used is the same as that described above. Only the oligonucleotides are different, the telomeric strand being replaced by an oligonucleotide having the following sequence: G-GTT-TAA-AAT-AAT-TGA-GGC-TTA-CCG-TTA-CCG-TTA-CGG biotinylated at the 5′ end. The complementary strand has the sequence: 5′-GGT-TTA-AAA-AAT-TTG-CGG-TAA-CGG-TAA-CGG-TAA-GCC-T labeled with digoxigenin at the 5′ end. If the test product has affinity for the biotinylated DNA sequence, the pairing of the complementary strand will be prevented and the signal obtained will be minimal. In the absence of product or if the latter has no affinity for this DNA, the pairing will occur and the signal will be maximum.

IC50 [1]: 600 nM
IC50 [2]: 50 nM
Structure (SMILES): C[n+]1cc(NC(=O)c2cccc(C(=O)Nc3cc4ccccc4[n+](C)c3)n2)cc2ccccc21.[I-].[I-] [Example 11, bis[(1-methylquinolinio-3-yl)amido]-2,6-pyridinedicarboxylic acid diiodide]
Affinity G4 Test 3 Delta Tm [3]: 21.8 °C
Affinity/selectivity G4 Test 1 (alpha screen) Selectivity factor [4]: >60
